Laboratory results from the supplement of paper PMC12340641.
The full ranking holds about 1,000 compounds; the median of “relative growth in counter assay (no AraC = 100%, AraC + DMSO = 0%)” is about -1.1, and the highest 2% start at about 20. Some of the results follow.

System: HEK293FT dCK*-only
Assay: relative growth in counter assay (no AraC = 100%, AraC + DMSO = 0%); higher = more growth rescue independent of IKZF1
Conditions: compound concentration: 5 uM; AraC concentration: 0.3 uM; overnight pretreatment + 4 days AraC
Protocol: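 Growth recovery screen of the molecular-glue-like (Specs) library. HEK293FT cells expressing a dCK*-IKZF1 fusion (primary) or dCK* alone (counter) were pretreated overnight with compound at 5 uM, then given 0.3 uM AraC for 4 days. Hoechst nuclei were counted by imaging. Primary: normalised to pomalidomide (100%) and DMSO (0%), mean of 2 replicates. Counter: normalised to no-AraC (100%) and AraC+DMSO (0%), single replicate.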

Compound | relative growth in counter assay [%]
CC(C)(C)CC(=O)NC1(C(=O)N2CCC(c3cccc(Nc4ncc(Cl)s4)n3)CC2)CCCCC1 | -22.6
Cc1cc(C)nc(NS(=O)(=O)c2ccc(Nc3nc(-c4ccccc4)cs3)cc2)n1 | 2.2
CC(C)c1cnc(Nc2cccc(C3CCN(C(=O)C4CCCCC4)CC3)n2)s1 | 11
Cc1csc(Nc2cccc(C3CCCN3C(=O)Cc3c[nH]c4ccccc34)n2)n1 (stereo not given) | 3.37
Cc1cccc(OC(C)(C)C(=O)N2CCOC(c3cccc(Nc4ncc(C)s4)n3)C2)c1 (stereo not given) | -4.9
COc1cc(NS(=O)(=O)c2ccc(NC(=O)COc3cccc(C)c3)cc2)nc(OC)n1 | -22.6
Cc1nonc1CC(=O)N1CCC(c2cccc(Nc3nc(C)c(C)s3)n2)CC1 | 9.17
CCOc1ccccc1OCC(=O)Nc1ccc(S(=O)(=O)Nc2ccccn2)cc1 | -1.47
Cn1nccc1/C=C/C(=O)N1CCCC(c2cc3ccccc3c(Nc3nccs3)n2)C1 (stereo not given) | -13.3
COc1c(C)cccc1C(=O)N1CCCC1c1cccc(Nc2nc(C)cs2)n1 (stereo not given) | 4.8
Cc1ccc(/C=C/C(=O)Nc2ccc(S(=O)(=O)Nc3cc(C)nc(C)n3)cc2)cc1 | -5.33
O=C(CSc1nnc2c(n1)[nH]c1ccccc12)Nc1cc(Cl)cc(Cl)c1 | -18.9
COc1cc(NS(=O)(=O)c2ccc(NC(=O)C(C)(C)C)cc2)nc(OC)n1 | 3.09
O=S(=O)(Nc1ccc(S(=O)(=O)Nc2ncccn2)cc1)c1ccc(Cl)cc1 | 10.6
Cc1ccc(CC(=O)N2CCOC(c3cccc(Nc4nccs4)n3)C2)cc1C (stereo not given) | -4.97
O=C(O)CCOCCOCCOCCOCCNc1cc2c(cc1F)C(=O)N(C1CCC(=O)NC1=O)C2=O (stereo not given) | 4.1
Cc1cc(C)nc(NS(=O)(=O)c2ccc(NC(=O)CSc3nc4ccccc4[nH]3)cc2)n1 | -1.02
CC(C)(C)C(=O)NC1(C(=O)N2CCC(c3cccc(Nc4ncc(Cl)s4)n3)CC2)CCCCC1 | -21.4
CCCc1cnc(Nc2cccc(C3CCN(C(=O)C4CCCCN4C(=O)COC)CC3)n2)s1 (stereo not given) | -1.04
CCC(=O)N1CCCC1c1csc(Nc2ccccn2)n1 (stereo not given) | -10.9
COc1ccc(/C=C/C(=O)Nc2ccc(S(=O)(=O)Nc3cc(C)nc(C)n3)cc2)cc1OC | 1.15
Cc1cnc(Nc2cccc(C3CCN(C(=O)C45CC6CC(CC(C6)C4)C5)CC3)n2)s1 | 10.9
O=C(O)CCCCCNc1cccc2c1C(=O)N(C1CCC(=O)NC1=O)C2=O (stereo not given) | 1.33
Cc1cc(C)nc(NS(=O)(=O)c2ccc(NC(=O)c3ncoc3-c3cccs3)cc2)n1 | -0.87
Cc1onc(-c2ccccc2)c1C(=O)Nc1ccc(S(=O)(=O)Nc2ncccn2)cc1 | -21.6
